The target of assay [1] is SPINOPHILIN (wild-type, endogenous) (human (endogenous in T47D and MDA-MB-468)) (UniProt Q96SB3). The experiment in a line: co-IP; anti-SPN (or anti-IgG control) on protein A Sepharose, 1 mg of T47D or MDA-MB-468 cell extract overnight, washed with PBS-BSA and IGEPAL 0.2%; blots for PP1α, PP1β, PP1γ, P-pRB, P-p107, P-p130.
The next assay addresses SPN-A566V (human) (UniProt Q96SB3). The description is as above.

Chains of the proteins cited; added tags and fusions are not shown. Lines headed by an entry give the natural chain unless they say otherwise; changes in a name come on top.
UniProt Q96SB3: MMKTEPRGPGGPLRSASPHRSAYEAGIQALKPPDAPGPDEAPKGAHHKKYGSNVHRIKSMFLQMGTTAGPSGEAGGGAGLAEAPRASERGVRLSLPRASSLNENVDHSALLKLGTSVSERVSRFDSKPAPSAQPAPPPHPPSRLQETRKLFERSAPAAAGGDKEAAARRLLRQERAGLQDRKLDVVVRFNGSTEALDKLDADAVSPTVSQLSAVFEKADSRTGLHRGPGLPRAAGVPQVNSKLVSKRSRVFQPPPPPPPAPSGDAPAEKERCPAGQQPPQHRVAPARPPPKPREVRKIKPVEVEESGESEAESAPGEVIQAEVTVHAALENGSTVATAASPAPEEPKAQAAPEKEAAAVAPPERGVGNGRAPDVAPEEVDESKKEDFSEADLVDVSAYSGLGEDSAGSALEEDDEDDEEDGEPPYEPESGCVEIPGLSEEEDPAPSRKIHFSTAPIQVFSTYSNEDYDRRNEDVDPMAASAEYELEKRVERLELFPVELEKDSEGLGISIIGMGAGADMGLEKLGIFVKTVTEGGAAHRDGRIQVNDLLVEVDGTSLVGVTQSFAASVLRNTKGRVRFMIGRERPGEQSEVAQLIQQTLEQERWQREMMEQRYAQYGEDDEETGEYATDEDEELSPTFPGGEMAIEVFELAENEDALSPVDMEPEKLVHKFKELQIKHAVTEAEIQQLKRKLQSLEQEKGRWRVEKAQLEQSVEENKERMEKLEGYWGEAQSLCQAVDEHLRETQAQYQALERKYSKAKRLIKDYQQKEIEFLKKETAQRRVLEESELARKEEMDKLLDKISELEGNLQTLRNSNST
UniProt Q08999: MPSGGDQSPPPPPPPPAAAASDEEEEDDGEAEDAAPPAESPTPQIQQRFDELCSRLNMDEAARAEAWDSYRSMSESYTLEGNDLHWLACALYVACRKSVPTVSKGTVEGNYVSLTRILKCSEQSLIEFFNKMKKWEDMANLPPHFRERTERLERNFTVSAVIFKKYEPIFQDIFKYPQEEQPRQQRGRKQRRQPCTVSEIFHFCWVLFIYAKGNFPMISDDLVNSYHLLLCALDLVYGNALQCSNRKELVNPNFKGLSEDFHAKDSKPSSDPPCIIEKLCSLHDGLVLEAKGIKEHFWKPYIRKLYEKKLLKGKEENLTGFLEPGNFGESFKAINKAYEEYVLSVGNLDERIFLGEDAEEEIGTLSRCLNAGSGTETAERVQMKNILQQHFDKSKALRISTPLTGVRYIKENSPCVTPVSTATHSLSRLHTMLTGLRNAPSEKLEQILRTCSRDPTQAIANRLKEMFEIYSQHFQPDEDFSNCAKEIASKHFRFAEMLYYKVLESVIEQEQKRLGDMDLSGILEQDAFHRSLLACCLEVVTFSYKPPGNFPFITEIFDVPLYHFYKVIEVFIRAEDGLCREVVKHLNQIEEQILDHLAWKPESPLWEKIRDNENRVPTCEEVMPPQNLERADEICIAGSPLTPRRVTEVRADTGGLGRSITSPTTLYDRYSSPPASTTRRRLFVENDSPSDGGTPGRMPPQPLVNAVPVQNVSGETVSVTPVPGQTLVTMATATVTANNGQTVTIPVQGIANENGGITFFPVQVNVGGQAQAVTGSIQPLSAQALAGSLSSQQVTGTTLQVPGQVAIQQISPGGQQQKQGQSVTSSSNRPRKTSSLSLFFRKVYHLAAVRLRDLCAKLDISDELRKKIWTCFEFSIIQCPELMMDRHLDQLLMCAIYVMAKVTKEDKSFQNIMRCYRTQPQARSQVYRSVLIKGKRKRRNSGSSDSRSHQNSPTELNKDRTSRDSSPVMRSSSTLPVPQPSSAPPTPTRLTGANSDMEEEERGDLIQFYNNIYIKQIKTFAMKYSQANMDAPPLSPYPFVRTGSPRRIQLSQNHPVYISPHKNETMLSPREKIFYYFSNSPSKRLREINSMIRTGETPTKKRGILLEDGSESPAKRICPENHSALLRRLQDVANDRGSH
UniProt P62136: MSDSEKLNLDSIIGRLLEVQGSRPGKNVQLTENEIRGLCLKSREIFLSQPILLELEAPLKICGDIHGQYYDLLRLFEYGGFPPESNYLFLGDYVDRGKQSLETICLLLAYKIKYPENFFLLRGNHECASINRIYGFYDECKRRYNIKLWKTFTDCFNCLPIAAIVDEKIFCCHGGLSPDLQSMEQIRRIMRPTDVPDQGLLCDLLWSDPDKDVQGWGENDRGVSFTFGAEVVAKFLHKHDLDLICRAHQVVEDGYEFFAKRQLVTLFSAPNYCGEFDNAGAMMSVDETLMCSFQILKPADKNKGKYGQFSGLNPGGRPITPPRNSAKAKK
UniProt P62140: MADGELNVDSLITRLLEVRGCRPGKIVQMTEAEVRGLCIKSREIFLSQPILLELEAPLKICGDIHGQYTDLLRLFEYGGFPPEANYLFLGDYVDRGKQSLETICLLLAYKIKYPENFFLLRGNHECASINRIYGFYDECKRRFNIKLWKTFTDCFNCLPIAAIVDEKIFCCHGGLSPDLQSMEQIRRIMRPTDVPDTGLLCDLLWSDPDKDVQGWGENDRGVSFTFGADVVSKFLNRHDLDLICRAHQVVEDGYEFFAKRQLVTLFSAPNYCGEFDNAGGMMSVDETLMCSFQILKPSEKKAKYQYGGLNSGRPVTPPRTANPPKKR
UniProt P36873: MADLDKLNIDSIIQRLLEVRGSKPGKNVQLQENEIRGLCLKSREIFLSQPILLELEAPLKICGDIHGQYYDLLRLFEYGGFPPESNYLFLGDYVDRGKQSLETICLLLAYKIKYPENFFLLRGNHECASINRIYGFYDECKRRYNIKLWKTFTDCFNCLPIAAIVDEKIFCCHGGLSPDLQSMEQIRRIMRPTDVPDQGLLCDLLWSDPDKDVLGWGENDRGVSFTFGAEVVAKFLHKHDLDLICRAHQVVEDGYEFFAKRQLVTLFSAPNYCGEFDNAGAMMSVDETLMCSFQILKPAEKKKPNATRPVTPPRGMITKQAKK

Results are given in words; binding and its absence hold for the method and conditions named. Binding seen in cells or lysates may run through a third protein. Some results given as binding are weak or reduced against the parent protein; the word gives no strength.

On to “P-p130 (Ser672) (from UniProt Q08999 1-1139)”, for which the binding entry is recorded as “binds” in assay [1] and “binds weakly” in the assay with SPN-A566V (human).
For the substance “PP1α (from UniProt P62136 1-330) (enzyme)”, the binding result with SPN-A566V (human) is listed as “binds”.
As for “PP1β (from UniProt P62140 1-327) (enzyme)”, the binding result in the assay with SPN-A566V (human) is on record as “no binding”.
Take “PP1γ (from UniProt P36873 1-323) (enzyme)”: the binding result in the assay with SPN-A566V (human) is given as “binds”.
